Reference: PubChem BioAssay AID1963576 (National Center for Advancing Translational Sciences (NCATS), 2024)
In all, about 46,000 compounds went through this assay and about 60 (0.1%) were called active. Another 3% or so got no clear call; they are omitted. Calls come from the whole dose curve; as a rule, active = well fitted inhibition curve with a large enough effect; inconclusive = small, poorly fitted or top-dose-only effect; inactive = no such curve, though single readings can be large or run the other way. Some of the results follow.

assay: Primary qHTS assay for Inhibitors of ovarian cancer metastasis using an organotypic tumor microenvironment (TME) model.; note: nearly all actives have a fitted effect of over 65% in size;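 for activity change, negative = inhibition: plate controls were DMSO wells for no effect and tomatine positive control wells for full effect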; conditions: SKOV3ip1-GFP adhesion/invasion on 3D omental model, fluorescence; series mostly up to 45.8 µM; activity change, negative = inhibition: at the top concentration
In short: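 A 3D layer of primary human omental fibroblasts, mesothelial cells, fibronectin and collagen I, grown 48 hr, received SKOV3ip1-GFP cells in serum-free medium plus compounds at 0.36-46 umol/L. After 2 hr RT and 16 hr 37 C, fixed adherent GFP cells were counted; normalized to DMSO and tomatine.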

Activity change, negative = inhibition, inactive:
CCCCSc1nnc2[nH]c(=O)cc(C)n12 -0.864%, CC1CCN(C(=O)CCS(=O)(=O)c2cc3c(cc2Cl)NC(=O)CO3)CC1 -1.89%, CC(=O)OC1=C(C(C)=O)N(Cc2ccccc2)S(=O)(=O)c2ccccc21 15.9%, Cc1ccc(Cl)cc1NC(=O)c1csnn1 1.01%, Cc1cc(NC(=O)c2ccc(F)cc2)ccc1-c1cc2ccccc2oc1=O -3.7%, COc1ccc(-c2cn3c(n2)sc2cc(C(=O)Nc4ccc(F)cc4)ccc23)cc1 5.93%, CC(=O)N1CCC2(CC1)OC(=O)C(C)=C2C(=O)NCc1ccccc1Cl 1.71%, CCC(=O)N1CCc2cc(Br)cc(S(=O)(=O)CCC(=O)Nc3ccc(CC)cc3)c21 1.06%, CCOC(=O)c1ccc(N2C(=O)c3[nH]nc(-c4ccc(C)cc4)c3C2c2ccc(O)cc2)cc1 (stereo unspecified) 4.13%, Cc1ccccc1CSc1ncc(Cl)c(C(=O)NCc2ccccc2)n1 1.5%, Cc1cccc(CC(=O)NC2CC(=O)N(c3ccc4c(c3)OCCO4)C2)c1 (stereo unspecified) 8.62%, CCN(CC)S(=O)(=O)c1ccc(NC(=O)c2nn(C)c3c2CSc2ccccc2-3)cc1 -7%, CCc1ccc(CNC(=O)Cn2ccc3cc(S(=O)(=O)N4CCCCCC4)ccc32)cc1 -4.12%, O=C(NC1CCCC1)c1ccc2c(=O)n(Cc3ccccc3)c(SCc3ccc([N+](=O)[O-])cc3)nc2c1 10.2%, CCN(CCCNC(=O)CSc1cc(=O)n(CC)c2ccccc12)c1ccccc1 0.539%, CCOC(=O)N1CCN(Cc2nc3cc(NC(=O)CC)ccc3n2C(C)C)CC1 0.166%, CCc1ccc(-n2nc(CO)c(C(=O)NC(C)c3ccc(Cl)cc3)n2)cc1 (stereo unspecified) 25.3%, COc1cccc(CNC(=O)CN2C(=O)CCc3cc(S(=O)(=O)N4CCOCC4)ccc32)c1 0.82%, COc1ccc(SCc2cc(=O)c3ccc(C)c(C)c3[nH]2)cc1 0.969%, O=C(NCCc1ccc(Cl)cc1)c1cc(-c2ccccc2)n[nH]1 3.03%, Cc1c(C)n(Cc2ccccc2)c2ccc(C(=O)N3CCN(c4ccccc4F)CC3)cc12 -6.38%, Cc1nc2ccn(Cc3cccnc3)c(=O)c2cc1C(=O)N1CCN(c2ccccc2F)CC1 6.12%, Cc1ccc(Sc2ccc(N3CCCC(C(=O)Nc4ccc(Br)cc4)C3)nn2)cc1 (stereo unspecified) -12%, COc1ccc(C2=C(C)C(N3CCC(C(=O)NCc4ccc(C)o4)CC3)=NS2(=O)=O)cc1 -5.29%, COc1cc2nc(N(C)CCCNC(=O)C3CCCO3)nc(N)c2cc1OC (stereo unspecified) -3.16%, Cc1ccc(C)c(N2CCN(c3nc4ccccc4c(=O)n3-c3ccc(Cl)cc3)CC2)c1 -14.1%, COc1ccc2c(c1)Cc1sc(NC(=O)c3ccccc3C)nc1-2 -8.26%, CCOc1ccc(-c2nnc(SCC(=O)NC3CCCCC3)nc2-c2ccc(OCC)cc2)cc1 -4.47%, CC(=O)c1ccc(NC(=O)Nc2ccc3snnc3c2)cc1 -11.6%, Cc1ccc(NC(=O)Cc2ccc(NC(=O)N3CCCCc4ccccc43)cc2)cc1Cl -2.66%, COc1ccc(/C=C/C(=O)Nc2ccc(C)cc2)cc1 -1.73%, CCN(CC)c1ccc(NC(=O)Cn2ncc3c(C)n(Cc4ccccc4F)c(C)c3c2=O)c(C)c1 9.57%, CCCCOc1ccc(C(=O)NCC(c2ccc(Cl)cc2)N2CCOCC2)cc1 (stereo unspecified) 0.694%, Cc1cccc(C)c1-n1ncc(C(=O)NCCCN2CCCCC2)c1C1CCN(C(=O)OC(C)(C)C)CC1 -23.4%, CCOC(=O)c1ccc(NC(=O)CN(Cc2ccc(C)cc2)S(=O)(=O)c2ccc(C)cc2)cc1 0.522%, CC(C)Oc1ccc(CNC(=O)CN2C(=O)CCn3nc(-c4cn(C)c5ccccc45)cc32)cc1 -6.42%, O=C(Nc1ccc(Oc2ccccc2)cc1)c1ccc(F)c(S(=O)(=O)N2CCN(c3cccc(Cl)c3)CC2)c1 8.85%, Cc1ccc(C)c(N2C(=O)N(Cc3ccccc3C)c3ccccc3S2(=O)=O)c1 5.3%, Cc1ccccc1OCC(=O)Nc1ccc2oc(-c3ccc(F)cc3)nc2c1 1.51%, Fc1ccccc1N1CCN(Cc2nnc(-c3ccc4c(c3)OCO4)o2)CC1 0.827%, CC1CN(C(=O)Nc2ccc(C(=O)NCc3ccccc3F)cc2)c2ccccc2S1 (stereo unspecified) -17.8%, COC(=O)c1ccc(NC(=O)CSc2n[nH]c(-c3ccccc3)n2)cc1 0.279%, CCN1CCN(CC(=O)Nc2ccc(-c3cccc4c(=O)cc(N5CCOCC5)oc34)c3sc4ccccc4c23)CC1 14.6%, CCOC(=O)c1cc2c(=O)n3ccccc3nc2n(Cc2ccco2)c1=NC(=O)c1ccc(Br)cc1 -24.7%, Cc1ccc(NC(=O)c2nnn(Cc3ccccc3)c2N)cc1C -8.83%, CCc1ccc(NC(=O)CN(C)S(=O)(=O)c2ccc3c(c2)c(=O)n(C)c(=O)n3C)cc1 1.85%, COc1ccc(NC(=O)c2ccco2)cc1NC(=O)COc1cccc(C)c1C -3.27%, COc1ccc(C)cc1NC(=O)COc1cc(=O)n(C)c2ccccc12 47.4%, O=C(CSc1oc(-c2ccccc2)nc1S(=O)(=O)c1ccc(Br)cc1)c1ccccc1 1.03%, Cc1ccccc1-c1nc(SCC(=O)NCc2ccc(F)cc2)c2c(=O)n(C)c(=O)n(C)c2n1 -4.01%, Cc1ccc2nc(N(CCCN(C)C)C(=O)c3ccco3)sc2c1 -8.55%, O=C(CCn1nc(-c2ccccc2)c2ccccc2c1=O)Nc1ccccc1 -7.63%, COc1ccccc1N1CCN(c2nc3ccccc3n3cnnc23)CC1 0.772%, COc1ccc(-c2nc(-c3cc4cc(Br)ccc4oc3=O)cs2)cc1 6.81%, Cc1ccc2c(c1)N(C(=O)N1CCC(C(=O)NCc3cccc(Br)c3)CC1)CCO2 2.29%, CC(=O)Nc1ccc(NC(=O)c2cc(=O)c3ccccc3o2)cc1 0.713%, COc1ccc(OCc2ccc(-c3nc(C#N)c(N4CCN(c5ccccc5)CC4)o3)o2)cc1 10%, Cc1cc(-c2ccc(C)c(S(=O)(=O)Nc3cccc(C)n3)c2)on1 3%, COc1cccc2cc(S(=O)(=O)c3ccc(F)c(C)c3)c(=O)oc12 5.33%, O=C(COc1ccccc1F)OCc1cc(=O)n2nc(C3CCCCC3)sc2n1 -1.58%, COc1ccc(Nc2nc3ccccc3nc2NS(=O)(=O)c2ccc(C)cc2)c(OC)c1 -8.84%, COC(=O)c1sc2cccc(F)c2c1S(=O)(=O)N1CCN(c2cccc(OC)c2)CC1 -12.5%, CCOC(=O)c1cc(-c2ccccc2)n(CCC(=O)NCc2ccccc2Cl)c1C 2.86%, Fc1ccc(N2CCN(c3nc4ccccc4c4nc(-c5cccnc5)nn34)CC2)cc1 12%, Cc1c(Cl)cccc1-c1ccc(CNCCCSc2nnnn2C)o1 -3.14%, CCCCN(C)CCNC(=O)C1CCCN(S(=O)(=O)c2cccc3nsnc23)C1 (stereo unspecified) 48.2%, Cc1nc2nc(SCC(=O)N(C)Cc3ccccc3)nn2c(C)c1Cc1ccccc1Cl -16.7%, Cc1cc(C)c(S(=O)(=O)N2CCC(n3c(C(F)(F)F)nc4cccnc43)CC2)c(C)c1 -12.8%, O=C1Nc2ccccc2Oc2cc(Oc3cccc(Cl)c3)ccc21 -5.68%, CCOC(=O)C1CCN(CC(=O)Nc2cc(C)c3c(=O)oc4ccccc4c3n2)CC1 -6.98%, Cc1cn2c(=O)cc(COc3cccc(NC(=O)c4ccc(C(C)(C)C)cc4)c3)nc2s1 -2.92%, Cc1ccc(NC(=O)CN(C)S(=O)(=O)c2ccc3c(c2)n(C)c(=O)c(=O)n3C)cc1F 5.9%, N#CC(=C(N)Sc1ccc(N)cc1)c1ccccc1C(F)(F)F 6.86%, O=C(CCn1cnc2onc(-c3ccc(F)cc3)c2c1=O)Nc1ccc(F)c(Cl)c1 -5.91%, Cc1nn(-c2ccccc2)c2nc(C3CC3)cc(C(=O)Nc3ccc(F)cc3)c12 2.05%, CCn1nc(C)c2c(-c3ccccc3)cc(=O)n(C(C)C(=O)Nc3cccc(F)c3)c21 (stereo unspecified) 0.658%, CCOc1ccc(NC(=O)CSc2oc(-c3cccs3)nc2S(=O)(=O)c2ccc(C)cc2)cc1 -21.9%, Cc1ccc(C)c(Nc2nnc(-c3ccc(C)c(S(=O)(=O)N4CCN(C)CC4)c3)c3ccccc23)c1 -5.81%, Cc1ccccc1CCNC(=O)c1ccc(NC(=O)N2CC(C)Sc3ccccc32)cc1 (stereo unspecified) 3.11%, COc1ccccc1NC(=O)c1sc2nc3c(c(C(F)(F)F)c2c1N)CN(C(C)=O)CC3 3.5%

outcome, inactive:
CCOC(=O)c1nnn(CC(=O)NC(=O)Nc2ccccc2F)c1C(=O)OCC, Fc1ccc(Nc2nc(SCc3cccc(F)c3)nc3ccccc23)cc1, COc1ccc(OC)c2sc(N(Cc3cccnc3)C(C)=O)nc12, COc1cccc(CNC(=O)c2ccc(-c3nc(CS(=O)c4ccccc4)c(C)o3)cc2)c1 (stereo unspecified), CCOC(=O)c1ccc(N2C(=O)c3n[nH]c(-c4ccco4)c3C2c2ccc(OC)cc2OC)cc1 (stereo unspecified), COc1cccc(-c2nc(S(=O)(=O)c3ccc(C)cc3)c(N3CCCCCC3)o2)c1, COc1ccc(-n2c(SCc3nc(-c4ccc(C)cc4)no3)nnc2-c2ccccc2)cc1, COC(=O)c1nnn(-c2cccc(C)c2)c1N, Cc1ccc(-n2nc(CO)c(C(=O)NCc3ccccn3)n2)cc1, Cc1cccc(C)c1NC(=O)Nc1csc2c1CCCC2, CCc1ccc(-n2nnc(-c3nsc(NC(=O)c4ccccc4Cl)n3)c2C)cc1, CCc1ccc(S(=O)(=O)c2cn(C)c3cc(N4CCOCC4)c(F)cc3c2=O)cc1, CCOc1ccc(NC(=O)c2c(C)nn(-c3ccc(F)cc3)c2-n2cccc2)cc1, C=CCc1ccccc1OCCSc1nc(-c2cccs2)nc2cc(=O)[nH]n12, O=C(Nc1ccc(OCc2cc(=O)n3c4c(sc3n2)CCCC4)cc1)c1cccc(F)c1, CCc1ccc(NC(=O)C(=O)NCCc2csc(-c3cccc(F)c3)n2)cc1
